Data as given in publication PMC12136788.
This is one part of the list.

T1: UNK ZnF1-6 (called full-length) (human, UniProt Q9C0B0 30-357)
T1 sequence: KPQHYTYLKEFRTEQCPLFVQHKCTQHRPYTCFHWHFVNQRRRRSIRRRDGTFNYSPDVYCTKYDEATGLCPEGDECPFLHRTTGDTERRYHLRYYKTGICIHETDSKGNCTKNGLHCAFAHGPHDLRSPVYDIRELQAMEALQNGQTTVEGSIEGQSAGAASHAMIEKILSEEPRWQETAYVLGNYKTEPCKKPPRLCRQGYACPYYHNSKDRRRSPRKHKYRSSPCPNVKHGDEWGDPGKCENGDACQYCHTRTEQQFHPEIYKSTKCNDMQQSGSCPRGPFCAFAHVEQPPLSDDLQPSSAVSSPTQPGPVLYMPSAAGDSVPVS

B1: chr2:19992051:19993110:-|three_prime_utr|ENSG00000132031|control|control|control (ssRNA)
RNA: GGGAGUUCUACAGUCCGACGAUCAGAAUCAGCAUGAUUCUUCCAAGGAAAUACAUAUGCAGAUACUUAUUAAGAGCAAACUUUAGUGUCUCUAAGUUAUGACUGUGAAAUGAUUGGUAGGAAAUAGAAUGAAAAGUUUAGUGUCAACAGAGGAUUGAGCAUCA
B2: chr3:142163631:142163732:-|3pUTR|ENSG00000175066|unk|total|mutant (ssRNA)
RNA: GGGAGUUCUACAGUCCGACGAUCCCCAAAGUGCUGGGAUUGCAGCCGUGAACCACUGCACCCAGCCAAUGGGUGUAAUUUCACCGGAAAUAAUUCUUUUUGUCAGAAUGUACUGAAUUGUAAUAUUAAUACCUGAAAAUUUGUCAACAGAGGAUUGAGCAUCA
B3: ENSG00000136631:stop:overlap|stop_codon|ENSG00000136631|stop_codon|NA|stop_codon (ssRNA)
RNA: GGGAGUUCUACAGUCCGACGAUCACAAAGGUGUUGGAGAGCAGCUUUGGGUUCUGUGCUGGUUGUUAGAACUCAUCUCCAGGUAGCCCACGGAUACGUGGUUGGCACAGACACAAGACUCCCAGAGUUGUCCUAACAAUAAGUCAACAGAGGAUUGAGCAUCA
B4: ENSG00000107863:be:win_4351|CDS|ENSG00000107863|bound_else_gene|NA|bound_elsewhere_windowed (ssRNA)
RNA: GGGAGUUCUACAGUCCGACGAUCCACAAUGAUACUAAAGAGGAGUCCAAAAAAGAAAGUGAGACACUGGGCAGAAAACAGAAGAUCAUCAUUGCCAAAGAAAACAGCACUAGGAAAGACCCCAGCACGACAAAAGAUGAAAAGCAACAGAGGAUUGAGCAUCA
B5: ENSG00000198589:be:win_1201|CDS|ENSG00000198589|bound_else_gene|NA|bound_elsewhere_windowed (ssRNA)
RNA: GGGAGUUCUACAGUCCGACGAUCGCUGAGCAUCACAAACUUUUAUUGUACGAUGGGAAACUCUCUAGUGCCAUUGCAUUCACGUACAAUCCACGGGCUACAGAUGCCCAGCUUUGUCUUGAAUCAUCUCCUAAGGACAACCCUCAACAGAGGAUUGAGCAUCA
B6: chr6:350928:351029:+|3pUTR|ENSG00000112679|unk|FALSE|unique (ssRNA)
RNA: GGGAGUUCUACAGUCCGACGAUCCCACAGAGUUUAGGCUGGUGCUGCCAAAAAGAAAAGCAACAUAGAGUUUAAGUAUCCAGUAGUGAUUUGUAAACUUGUUUUUCAUUUGAAGCUGAAUAUAUACGUAGUCAUGUUUAUGUUCAACAGAGGAUUGAGCAUCA
B7: chr14:92797766:92797867:+|CDS|ENSG00000066455|msi1|FALSE|unique (ssRNA)
RNA: GGGAGUUCUACAGUCCGACGAUCCAUUUUGUGCGAAGAAAAAAGUCAGAACCUGAUGAUGAGCUGCUGUUUGAUUUUCUUAAUAGUUCACAGAAGGAGCCUACCGGGAGGGUGGAAAUCAGAAAGGAAAAAGGCAAGACACCUCAACAGAGGAUUGAGCAUCA
B8: chr8:38210266:38210373:+|CDS|ENSG00000156735|unk|FALSE|unique (ssRNA)
RNA: GGGAGUUCUACAGUCCGACGAUCAAAAAUCAUACAUGUGCUGGAGAAGGUCCAGUAUCUUGAACAAGAAGUAGAAGAAUUUGUAGGAAAAAAGACAGACAAAGCAUACUGGCUUCUGGAAGAAAUGCUAACCAAGGAACUUUUCAACAGAGGAUUGAGCAUCA
B9: ENSG00000107863:be:win_601|CDS|ENSG00000107863|bound_else_gene|NA|bound_elsewhere_windowed (ssRNA)
RNA: GGGAGUUCUACAGUCCGACGAUCCCAAUCUGCUAUCCCUGGCUGCCAUCUGCCCCAUCAGCCAUGGCACAGCCAGUUGAAAUAUCUCCUCCUGACUCAUCAUUGAGCAAACAGCAAACCAGUACACCAGUACUGACACAACCUCAACAGAGGAUUGAGCAUCA
B10: chr12:104348774:104348848:+|3pUTR|ENSG00000198431|msi1_unk|FALSE|overlapping (ssRNA)
RNA: GGGAGUUCUACAGUCCGACGAUCCGUUGUCAAGUUUUCUAGGGUUGAAUUUUUUUCUUUUUUCUCCAUGGUGUUAAUGAUAUUAGAGAUGAAAAACGUUAGCAGUUGAUUUUUGUCCAAAAGCAAGUCAUGGCUAGAGUAUCCCAACAGAGGAUUGAGCAUCA
B11: chr11:75572625:75572772:+|3pUTR|ENSG00000149257|msi1|total|mutant (ssRNA)
RNA: GGGAGUUCUACAGUCCGACGAUCUCUGGCGUUGUGGGGAUGAACUUUUUGUUUUGUUUCUUCCUUUUUCCGUUCUUCAAAGACCGGGAGGGAAGGGGGAACAUGAGCCUUUGUUGCUAUCAAUCCAAGAACUUAUUUGUACAUCAACAGAGGAUUGAGCAUCA
B12: ENSG00000198774:stop:overlap|stop_codon|ENSG00000198774|stop_codon|NA|stop_codon (ssRNA)
RNA: GGGAGUUCUACAGUCCGACGAUCGUUCUAACCACAGUCAGGACUCCGAAACAACAGUAGGAGAUGUGGUGCUGUUGUCAACAUAGUUCCAAUGGCUCCUUUCUGACCUGCUUUCAUGUUUUAAUGUUUGUUUAAUUUAAUAGGCAACAGAGGAUUGAGCAUCA
B13: chr9:132694550:132694651:+|3pUTR|ENSG00000125484|unk|total|mutant (ssRNA)
RNA: GGGAGUUCUACAGUCCGACGAUCUUCCUGAAGAUUACAUAUCAGUGUCCUGCGUUUUUAUCUAAUAUCCGAGCUGAGGUUCCCCGGAAAAUUUUGAAGUGGGGAAGAUUAUGGAGAAAAUGAAAUGGAAAUUUGGGGAGGGUGCAACAGAGGAUUGAGCAUCA
B14: chr8:10764960:10765785:-|three_prime_utr|ENSG00000254093|control|control|control (ssRNA)
RNA: GGGAGUUCUACAGUCCGACGAUCCCGGGACUUCACCCUGAAGCCCAAAAAGAGGAGAGGGAAGAAAAAGCUGCAAAAACCAGUAGAGAUAGCAGAGGACGCUACACUAGAAGAAACGCUAGUGAAAAAGAAGAAGAAGAAAGACAACAGAGGAUUGAGCAUCA
B15: chr1:225495143:225495244:-|3pUTR|ENSG00000154380|msi1|FALSE|unique (ssRNA)
RNA: GGGAGUUCUACAGUCCGACGAUCACAUUAUUAUGAUGGUUUUUGUGCUCUUGUACGUUGGAUGUCUUAAGCUGAGUACAGUUUAGGGGAUCCUUUCUAAUGACAGGAAGGCACUGCUUUCCUCAACACUGUGAUCUGACCUGUCAACAGAGGAUUGAGCAUCA
B16: chr1:226361101:226361261:-|3pUTR|ENSG00000143799|msi1|FALSE|unique (ssRNA)
RNA: GGGAGUUCUACAGUCCGACGAUCUUUCUUGCCAGGUAGAUAAAACUGACAUAGAGAAAAGGCUGGAGAGAGAUUCUGUUGCAUAGACUAGUCCUAUGGAAAAAACCAAGCUUCGUUAGAAUGUCUGCCUUACUGGUUUCCCCACAACAGAGGAUUGAGCAUCA
B17: chr1:116393555:116393656:+|CDS|ENSG00000163399|msi1|total|mutant (ssRNA)
RNA: GGGAGUUCUACAGUCCGACGAUCCCCCAACACAUCGGAGCCCCAACACCUGUUGGUGAUGAAGGGCGCCCCAGAAAGGAUCCCCGACCGUUGCAGCUCUAUCCUCCUCCACGGCAAGGAGCAGCCCCUGGAUGAGGAGCUGAACAACAGAGGAUUGAGCAUCA
B18: chrX:103499925:103500756:-|CDS|ENSG00000172476|control|control|control (ssRNA)
RNA: GGGAGUUCUACAGUCCGACGAUCUGAGGUCAGCCCUCUGUGCAAUUUCAACAUCAUAGAGUCUUUCACGGAGCUGGCCAGGAUAGUGCUGCUGCGGCACAGGAUGAAUUGGCUCGGGAGGCCGAGCAAGGUACUGAGCUUGCACAACAGAGGAUUGAGCAUCA
B19: chr6:134169319:134169461:-|3pUTR|ENSG00000118515|unk|FALSE|unique (ssRNA)
RNA: GGGAGUUCUACAGUCCGACGAUCUGCAUUCCUGAUAAUUGUAUGUAUUGUAUAAAGAACGUCUGUACAUUGGGUUAUAACACUAGUAUAUUUAAACUUACAGGCUUAUUUGUAAUGUAAACCACCAUUUUAAUGUACUGUAAUCAACAGAGGAUUGAGCAUCA
B20: chr1:65389253:65389354:+|CDS|ENSG00000116675|unk|FALSE|unique (ssRNA)
RNA: GGGAGUUCUACAGUCCGACGAUCGUUAGAUGCAUGUGAUGUACCAGAAAAAUAUCCUCAGCUAUUUCAGGUGACACUGGAUGUAGAACUACAGCCCCAUGACAAAGUAAUAGACUUAACUCCACCAUGGGAACAUUACUGCACCAACAGAGGAUUGAGCAUCA
B21: chr14:75134463:75134564:-|3pUTR|ENSG00000170348|msi1|total|mutant (ssRNA)
RNA: GGGAGUUCUACAGUCCGACGAUCCUGUUUGGACUAUGUUUUCUUUUCUUCUCCCACUUGCUCAGCAGCUUGGGCUUCCAUUCCCGUUCUUUUACCAAGAUUUUUGUGUGACCAUGUUGACUUCAUUUGGAUUGCCCUCUUUCACAACAGAGGAUUGAGCAUCA
B22: ENSG00000249115:stop:overlap|stop_codon|ENSG00000249115|stop_codon|NA|stop_codon (ssRNA)
RNA: GGGAGUUCUACAGUCCGACGAUCACAGUCCACAGGUGAGAAGCAUAUGCUACAAGAUUCUCUUUCAUCCGAAAAAUGACUUGUAGAUCUUCUGCUCUAAGCCCAACCAGGUGCUGGGUGAUGCUGGGGACAAUGGGUCACAAGCAACAGAGGAUUGAGCAUCA

Each binder was assayed against T1, UNK ZnF1-6 (called full-length) (assay: nsRBNS (natural sequence RNA bind-n-seq); RBNS binding buffer (assumed for nsRBNS): 25 mM Tris pH 7.5, 150 mM KCl, 3 mM MgCl2, 0.01% Triton X-100, 500 ug/ml BSA, 20 U/ml SUPERase-In, 4 C; UNK is unkempt and MSI1 is Musashi-1; names of the RNAs are library labels; protein concentration not given here; high values mean tight binding).
B1 gave a binding signal of 1.58 enrichment R. B2 gave a binding signal of 0.381 enrichment R. For B3, the binding signal was 0.922 enrichment R. B4 gave a binding signal of 0.687 enrichment R. For B5, the binding signal was 0.458 enrichment R. B6 gave a binding signal of 0.557 enrichment R. In the case of B7, the binding signal is reported as 0.931 enrichment R. B8 showed a binding signal of 0.552 enrichment R. B9 gave a binding signal of 0.488 enrichment R. B10 showed a binding signal of 1.18 enrichment R. Binder B11 has a binding signal of 0.461 enrichment R. In the case of B12, the binding signal is reported as 0.722 enrichment R. With B13 the binding signal was 0.795 enrichment R. For B14, the binding signal was 0.856 enrichment R. Work on B15 yielded a binding signal of 0.301 enrichment R. With B16 the binding signal was 0.839 enrichment R. B17 gave a binding signal of 0.555 enrichment R. Work on B18 yielded a binding signal of 0.72 enrichment R. With B19 the binding signal was 1.14 enrichment R. Binder B20 has a binding signal of 0.901 enrichment R. Binder B21 has a binding signal of 0.495 enrichment R. For B22, the binding signal was 0.79 enrichment R.
